Data on 59 compounds can be found in PubChem BioAssay AID1159614 (National Center for Advancing Translational Sciences (NCATS), 2016).

About 65 (0.1%) of roughly 45,000 compounds were called active. Calls come from the whole dose curve; as a rule, active = well fitted activation curve with a large enough effect; inconclusive = small, poorly fitted or top-dose-only effect; inactive = no such curve, though single readings can be large or run the other way. Some of the results follow.

Sequence of UniProt P54803 (P54803 whole entry, looked up): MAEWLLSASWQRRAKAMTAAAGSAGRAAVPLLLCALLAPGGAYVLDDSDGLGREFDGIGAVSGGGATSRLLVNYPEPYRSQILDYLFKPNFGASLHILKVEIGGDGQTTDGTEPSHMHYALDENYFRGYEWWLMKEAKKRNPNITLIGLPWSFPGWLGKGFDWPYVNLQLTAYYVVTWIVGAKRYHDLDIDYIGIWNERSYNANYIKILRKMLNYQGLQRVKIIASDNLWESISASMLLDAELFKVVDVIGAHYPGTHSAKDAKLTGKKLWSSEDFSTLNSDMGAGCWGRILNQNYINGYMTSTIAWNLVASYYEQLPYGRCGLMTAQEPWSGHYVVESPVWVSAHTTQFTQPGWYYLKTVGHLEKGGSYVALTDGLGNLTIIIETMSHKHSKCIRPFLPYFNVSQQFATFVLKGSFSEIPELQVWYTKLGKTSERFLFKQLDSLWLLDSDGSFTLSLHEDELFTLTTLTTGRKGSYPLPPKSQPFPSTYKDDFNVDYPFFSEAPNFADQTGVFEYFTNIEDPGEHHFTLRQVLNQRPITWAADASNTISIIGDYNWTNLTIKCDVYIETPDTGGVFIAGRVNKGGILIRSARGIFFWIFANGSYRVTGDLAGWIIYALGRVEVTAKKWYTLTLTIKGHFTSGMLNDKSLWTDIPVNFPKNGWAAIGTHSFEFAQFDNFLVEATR

The assay deals with Galactocerebrosidase (Homo sapiens) (UniProt P54803). As to the kind of experiment: A Novel Cell-Based Assay to Identify Small Molecules for B -Galactocerebrosidase. Note: 0% is about no effect; nearly all actives have a fitted effect of over 65% in size. The settings on record: 145M-Twi-hGALC-G270D cells (Twitcher mouse brain line with human GALC G270D), HMU-beta-Gal fluorescence, 48 h; series mostly up to 57.5 µM; activation: at the top concentration. The method, boiled down:
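Live 145M-Twi cells (Twitcher mouse brain-derived, GALC-null) stably expressing human GALC-G270D, with a wild-type GALC line, were compound-treated. Residual GALC activity was then read as fluorescence from 0.1 mM final HMU-β-gal at pH 5.2; higher signal means activation.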
For the compound `O=C(NCCS(=O)(=O)N1CCN(c2ccccc2F)CC1)c1ccccc1C(F)(F)F`, the “activation” value is inactive: -11.9%. As to `Fc1ccc(F)c(Nc2c3c(nc4ccc(Cl)cc24)CCC3)c1`, the “activation” value is inactive: -3.96%.

As to `CCN(CC)CCCNC(=O)c1c2c(nc3ccccc13)C(=O)N(C1CCCCC1)C2`, the “activation” value is inactive: -19.1%. For `CCOC(=O)c1c(NC(=O)c2cc(=O)c3cc(Cl)ccc3o2)sc(C)c1C`, the “activation” value is inactive: -8.74%. With `COc1ccc(N2C(=O)C(CC(=O)Nc3ccc(Cl)cc3)N(Cc3ccc4c(c3)OCO4)C2=O)cc1` (centres undefined), the “activation” value was inactive: -15.4%.

Take `Cc1cccc2sc(N(Cc3cccnc3)C(=O)CCS(=O)(=O)c3ccccc3)nc12`: the “activation” value was inactive: -4.16%. With `COc1ccc(NC(=O)CCc2nc3cccnc3n2-c2ccccc2)c(OC)c1`, the “activation” value was inactive: -8.15%.

Take `COCCn1c(=N)c(C(=O)NCC2CCCO2)cc2c(=O)n3ccccc3nc21` (centres undefined): the “activation” value was inactive: -11%. With `CCOc1ccc(CCNC(=O)CSc2nnnn2-c2ccccc2Cl)cc1OCC`, the “activation” value is inactive: -5.9%. Turning to `CCN1CCN(C(c2ccc(C)cc2)c2sc3nc(-c4ccco4)nn3c2O)CC1` (centres undefined), the “activation” value was inactive: -11.9%. As for `Cc1cccc(-c2nc(SCc3cc(=O)c4cccc(F)c4[nH]3)n[nH]2)c1`, the “activation” value is inactive: -2.8%. With `Cc1ccc(C)c(N2CCN(C(=O)CN3CCSc4ccccc43)CC2)c1`, the “activation” value is inactive: -33.6%. As for `COc1cc(C(=O)Nc2ccccc2OCc2cc(=O)n3c(C)csc3n2)cc(OC)c1OC`, the “activation” value is inactive: -6.01%.

Regarding `CCOc1ccc(NC(=O)CC2Nc3cccc4cccc(c34)NC2=O)cc1` (centres undefined), the “activation” value was inactive: -22.1%. Take `CC1=C(c2ccc(C)c(C)c2)S(=O)(=O)N=C1N1CCN(c2cccc(C)c2)C(C)C1` (centres undefined): the “activation” value was inactive: 2.83%. As for `COc1ccc(C(=O)N2CCCCC2CCN2CCOCC2)cc1` (centres undefined), the “activation” value is inactive: -5.8%.

`CCOC(=O)c1c(C)[nH]c(C)c1S(=O)(=O)N(C)CC(=O)Nc1cccc(Cl)c1C`: the “activation” value was inactive: -9%.

In the case of `Cc1c(Cl)cccc1NC(=O)c1cc(-c2cccs2)on1`, the “activation” value was inactive: 1.02%. In the case of `COc1ccc(CN2CCCN(CC(=O)Nc3ccc(Br)cc3F)S2(=O)=O)cc1` it was inactive: -14.3%; in that of `Cc1ccc(NCc2cccn2-c2nnc(N3CCC(C(=O)NCc4ccccc4C)CC3)s2)cc1`, inactive: -5.36%. In the case of `Cc1ccc(-n2ncc(C(=O)NCc3ccc4c(c3)OCO4)c2C2CCN(C(=O)OC(C)(C)C)CC2)cc1C`, the “activation” value was inactive: -41.7%. Turning to `Cc1c(C(=O)N2CCC(C)CC2)c(S(=O)(=O)Nc2cccc(C#N)c2)c(C)n1C`, the “activation” value is inactive: -1.72%.

With `Cc1cc(-c2ccc(S(=O)(=O)Nc3cccc(C(F)(F)F)c3)s2)on1`, the “activation” value was inactive: -26.8%.

In the case of `CC(C)Sc1ncc(Cl)c(C(=O)Nc2nc3ccc(S(C)(=O)=O)cc3s2)n1`, the “activation” value was inactive: -14.7%. In the case of `CCOC(=O)c1ccc(NC(=O)C2=C(C)C(=O)OC23CCCCCC3)cc1` it was inactive: 7.71%; in that of `CN(C(=O)CSc1nc2ccc(NC(=O)COc3ccc(F)cc3)cc2s1)c1ccccc1`, inactive: -5.11%. As for `O=C(c1ccccc1Cl)N1CCCC(c2nc3c(nnn3Cc3ccc(F)cc3F)c(=O)[nH]2)C1` (centres undefined), the “activation” value was inactive: -8.36%. For `Cc1ccc(-c2nc3cc(Cl)ccc3o2)cc1NC(=O)c1cc2ccccc2o1`, the “activation” value was inactive: -12.6%. In the case of `NC1[C@H]2CN(c3nc4c(cc3F)c(=O)c(C(=O)O)cn4-c3ccc(F)cc3F)C[C@@H]12` (some centres undefined) it was inactive: -6.83%. As to `Cc1c(C(=O)N(C)C)sc2c1c(=O)n(-c1ccccc1C(F)(F)F)c(=O)n2Cc1ccccc1C#N`, the “activation” value was inactive: -9.56%.

Consider `Cc1cc(C)c(NC(=O)C2CCN(C(=O)N3CC(C)Oc4ccc(Cl)cc43)CC2)c(C)c1` (centres undefined), for which the “activation” value was inactive: -11.4%.

Regarding `Cc1cc(C)cc(NS(=O)(=O)c2ccc(-c3cc(C)no3)s2)c1`, the “activation” value is inactive: -7.51%. In the case of `COc1ccc(NC(=O)c2cc3c(=O)n(Cc4cccs4)ccc3nc2C)c(OC)c1`, the “activation” value was inactive: -20%.

For the compound `COc1ccc(NC(=O)Cn2c(=O)n(Cc3nc(C)no3)c(=O)c3cc4c(cc32)OCO4)cc1`, the “activation” value was inactive: -7.81%. With `Cc1ccccc1Cn1c(=O)n(CC2CCC(C(=O)N3CCC(C)CC3)CC2)c(=O)c2sccc21` (centres undefined), the “activation” value was inactive: -17%. To `COc1ccccc1CNC(=O)CCCn1c(=O)c2ccccc2n(CC(=O)Nc2ccc(C)cc2Cl)c1=O` belongs inactive: -8%; to `CC(C)Cc1nn2c(=O)cc(COC(=O)c3cccc(NC(=O)c4cccs4)c3)nc2s1`, inactive: -16.6%. Turning to `COc1ccc(-c2nsc(NC(=O)COc3ccccc3OC)n2)cc1`, the “activation” value is inactive: -15.8%.

Consider `Cc1c(Cl)cccc1NC(=O)CSc1nc(=O)n(Cc2ccncc2)c2c1CCC2`, for which the “activation” value is inactive: -12.3%. In the case of `Cc1ccc(C(=O)COC(=O)CCCC(=O)Nc2cc(C(F)(F)F)ccc2Cl)cc1C` it was inactive: 3.03%; in that of `COc1cccc(CNC(=O)CSc2cc(C)[nH]c(=O)n2)c1`, inactive: -24.5%.

Consider `CCc1nn(CCCN2CCN(c3cccc(Cl)c3)CC2)c(=O)n1CCOc1ccccc1`, for which the “activation” value was inactive: -13.6%. As for `Cn1c(=O)n(Cc2ccccc2Cl)c(=O)c2c1nc1n2CCN1c1ccccc1`, the “activation” value was inactive: 3.92%. `CCn1ccc2cc(S(=O)(=O)N3CCCN(C(=O)Nc4ccc(C)cc4Cl)CC3)ccc21`: the “activation” value was inactive: 4.11%. To `COc1cc2c(cc1OC)n(CC(=O)Nc1ccc(C)cc1C)c(=O)n1nc(-c3ccccc3)nc21` belongs inactive: -12.9%; to `Cc1cc(Nc2ccccc2F)n2nc(Cc3ccc(Cl)cc3)nc2n1`, inactive: -0.609%. `Cc1oc(-c2ccc(C(=O)NCCCOC(C)C)cc2)nc1CS(=O)(=O)c1ccccc1`: the “activation” value is inactive: 6.42%.

In the case of `COc1ccc(C(=O)NCc2ccc3c(c2)CCN3C(C)=O)cc1OC`, the “activation” value was inactive: -3.33%. In the case of `CC(=O)N1CCN(C(=O)C(=O)Nc2c3c(nn2-c2ccc(Cl)cc2)CSC3)CC1` it was inactive: -3.96%; in that of `COC(=O)c1ccc(C2c3c(-c4ccc(Br)cc4)n[nH]c3C(=O)N2c2ccc(Cl)cc2)cc1` (centres undefined), inactive: -7.93%. For `CC(C)c1ccc(Nc2cc(C(=O)NCCCN(C)Cc3ccccc3)c3ccccc3n2)cc1`, the “activation” value is inactive: -9.51%. `Cc1cccc(NC(=O)CSc2ncc3c(n2)-c2cc(Cl)ccc2N(C)S3(=O)=O)c1C`: the “activation” value is inactive: -15.8%. In the case of `COc1ccc(-c2nnc(SCC(=O)N3CCCCC3)o2)cc1` it was inactive: -5.74%; in that of `CCOc1ccccc1-c1noc(CSc2nnc(-c3ccncc3)n2-c2ccc(F)cc2)n1`, inactive: -14.5%. As for `CC1CCN(C(=O)CN2c3ccc(Br)cc3-c3ccccc3S2(=O)=O)CC1`, the “activation” value was inactive: -3.99%. As for `O=C(COc1ccccc1)Nc1c(C(=O)N2CCN(c3ccc(F)cc3)CC2)oc2ccccc12`, the “activation” value was inactive: -23.3%. In the case of `CCc1ccc(OCC(=O)Nc2cc3oc4ccccc4c3cc2OC)c(Br)c1`, the “activation” value was inactive: -19.1%.

On to `CCOc1ccc2c(c1)c(=O)c(S(=O)(=O)c1ccc(CC)cc1)cn2CC`, for which the “activation” value is inactive: -8.33%. Consider `CCOC(=O)c1ccc(NC(=O)c2c(NCc3cccc(OC)c3)sc3c2CCC3)cc1`, for which the “activation” value was inactive: -15.2%.
